# Experimental data as given in PubChem BioAssay AID488969 (Vanderbilt High Throughput Screening Facility, 2010).
# The full ranking holds about 110,000 compounds; the median of “z-score” is about -0.1, and the highest 2% start at about 2. The list shows a part of the results. Active and inactive are the calls of the source.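 The calls were made as follows: active = z-score in the third read window above 3 or below -3; inactive = the rest.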
# Biological target: Metabotropic glutamate receptor 8 (Rattus norvegicus) (UniProt P70579)
# Sequence of UniProt P70579 (P70579 whole entry, looked up): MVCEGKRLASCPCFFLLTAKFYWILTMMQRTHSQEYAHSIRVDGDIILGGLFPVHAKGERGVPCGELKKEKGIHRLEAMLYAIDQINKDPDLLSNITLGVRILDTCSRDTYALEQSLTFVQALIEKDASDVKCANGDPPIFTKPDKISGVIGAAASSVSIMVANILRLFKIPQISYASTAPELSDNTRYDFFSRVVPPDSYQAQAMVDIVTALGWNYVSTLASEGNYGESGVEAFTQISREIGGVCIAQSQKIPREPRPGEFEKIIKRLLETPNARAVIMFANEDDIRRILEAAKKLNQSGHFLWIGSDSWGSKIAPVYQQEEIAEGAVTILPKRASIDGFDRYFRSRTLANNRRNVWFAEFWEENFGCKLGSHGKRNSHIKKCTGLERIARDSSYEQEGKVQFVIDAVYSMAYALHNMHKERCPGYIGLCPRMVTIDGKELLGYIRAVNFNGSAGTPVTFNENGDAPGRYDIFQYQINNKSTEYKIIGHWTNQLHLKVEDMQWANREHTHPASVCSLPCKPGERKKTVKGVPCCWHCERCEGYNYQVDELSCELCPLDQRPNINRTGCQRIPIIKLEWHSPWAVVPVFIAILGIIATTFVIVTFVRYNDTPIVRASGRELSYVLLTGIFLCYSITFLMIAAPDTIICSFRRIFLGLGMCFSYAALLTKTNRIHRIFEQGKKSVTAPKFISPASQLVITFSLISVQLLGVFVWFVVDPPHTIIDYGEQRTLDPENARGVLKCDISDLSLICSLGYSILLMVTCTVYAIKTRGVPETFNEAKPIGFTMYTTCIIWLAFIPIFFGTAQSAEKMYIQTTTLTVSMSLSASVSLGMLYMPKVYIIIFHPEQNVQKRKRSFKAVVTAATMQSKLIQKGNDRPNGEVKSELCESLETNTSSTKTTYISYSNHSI
# Test: mGluR8 Gi/Go-coupled signaling modulation – cell-based, rat, thallium flux, HTS, primary screen (AID 488969)
# Conditions: HEK293 rat mGluR8, GIRK (G protein-gated inwardly rectifying potassium channel) thallium flux, FluoZin2; at 10 µM; stronger effect = higher value; submaximal glutamate (EC20) added with thallium
row,Compound,z-score
1,Cc1ccc(C(=O)O/N=C(/c2nonc2N)N(C)C)cc1,-0.0384
2,CC(=O)C1=C(C)NC(SCc2ccc(C#N)cc2)=C(C#N)C1c1ccco1 (stereo not drawn),active: 5.85
3,NS(=O)(=O)c1ccc(NC(=O)CN2CCN(Cc3ccccc3)CC2)cc1,0.629
4,COc1ccc(/C=C/C(=O)c2cc(F)ccc2OC(=O)c2ccccc2)cc1OC,-0.291
5,CCCCNC(=O)C(Sc1ccccc1)c1ccccc1 (stereo not drawn),-0.515
6,CCOC(=O)C1=C(CN2CCC(C)CC2)NC(=O)NC1c1ccc(Cl)cc1 (stereo not drawn),-0.112
7,CC(=NCCCn1ccnc1)c1c(-c2ccccc2)[nH]n(-c2nc3ccccc3s2)c1=O,-0.357
8,Cc1cc(-c2nn3c(-c4ccccc4)nnc3s2)c2ccccc2n1,-0.635
9,CC(=O)Nc1ccc(S(=O)(=O)Nc2nc(-c3ccc(C(C)(C)C)cc3)cs2)cc1,0.0667
10,Cc1c(/C=N/N2C(=O)C3C4C=CC(C4)C3C2=O)c2ccccc2n1C (stereo not drawn),-0.125
11,CCOC(=O)N1CCC(NC(=O)C(Cc2ccccc2)NC(=O)C2CCCCC2)CC1 (stereo not drawn),-0.251
12,O=C(Nc1ccccc1Cl)NC1(C(=O)NCCCN2CCOCC2)CCCCC1,-0.514
13,CCOc1ccc(-c2nc(CSc3nnc(N)s3)cs2)cc1,-0.282
14,COc1ccccc1N1C(=O)CC(Sc2nccc(C)n2)C1=O (stereo not drawn),1.42
15,O=C(Nc1ccc(S(=O)(=O)Nc2ncccn2)cc1)c1ccc(Br)s1,0.347
16,Cc1cccc(C(=O)Nc2cccc(C(=O)N3CCOCC3)c2)c1,0.616
17,CC1=C(C(=O)Nc2ccccc2C)C(c2ccc(C)o2)N2C(=O)CSC2=N1 (stereo not drawn),0.284
18,CN(NC(=O)c1cccc(Cl)c1)c1nc(-c2ccccc2)nnc1C(F)(F)F,-0.0813
19,Cc1ccc(S(=O)(=O)N(CC(=O)N2CCN(c3ccccc3F)CC2)C2CCCCC2)cc1,-0.459
20,CCOC(=O)c1ccc(NC(=O)N2CCN(CCc3ccccc3)CC2)cc1,-0.758
21,CCn1c(C(C)NC(C)=O)nc2ccccc21 (stereo not drawn),-0.358
22,COc1ccc(CCN2C(=O)NC(NC(=O)CCc3ccccc3)(C(F)(F)F)C2=O)cc1OC (stereo not drawn),-0.276

row,Compound,z-score
1,CCCOc1ccc(N2C(=O)CC(NCCc3ccc(S(N)(=O)=O)cc3)C2=O)cc1 (stereo not drawn),-0.206
2,O=C(O)/C=C/C(=O)Nc1ccc(Oc2ccc(NC(=O)/C=C/C(=O)O)cc2)cc1,-0.19
3,CCCC(=O)Nc1cccc(NC(=O)c2cccc([N+](=O)[O-])c2C)c1,1.04
4,CC(C)CCNC(=O)CCn1nc(-c2ccccc2)ccc1=O,-0.445
5,CCCC(=NCCc1c(C)[nH]c2ccccc12)C1=C(O)CC(c2ccccc2)CC1=O (stereo not drawn),0.13
6,CCOC(=O)N1CCC(NC(=O)C2=C(C)C(=O)OC23CCC(C)CC3)CC1 (stereo not drawn),-1.59
7,Cn1c(=O)c(-[n+]2ccccc2)c([O-])c2ccccc21,-0.0632
8,CC1CCc2c(nc3nc[nH]n3c2=O)C1 (stereo not drawn),-1.14
9,CCOc1ccc(NC(=O)CSc2nc(C)cc(C)n2)cc1,0.67
10,CCOc1cc(C(=O)Nc2ccc(S(=O)(=O)Nc3cc(C)on3)cc2)cc(OCC)c1OCC,-1.18
11,CCOC(=O)C1CCN(Cc2ccc(F)cc2)CC1,0.459
12,COc1cc(/C=N/N2CCN(C3c4ccccc4-c4ccccc43)CC2)cc(OC)c1OC,-0.118
13,CCOc1ccc(-n2c(SCC(=O)Nc3ccccc3C)n[nH]c2=O)cc1,-0.0269
14,CCCc1ccc(-c2csc(NC(=O)Cc3cccs3)n2)cc1,-0.124
15,COc1ccc(NC(=O)C2CCCCN2N)cc1OC (stereo not drawn),-0.0931
16,C=C1C(C(=O)N2CCN(C)CC2)C1C(=O)N1CCN(C)CC1 (stereo not drawn),-0.401
17,C=CCN1C(=O)C(C(C)CC)NC1=S (stereo not drawn),-0.0458
18,O=C(CN1CCN(CCO)CC1)Nc1ccccc1,-0.0301
19,Cc1cnc2cc(Cl)c(Cl)cc2n1,-0.703
20,Cc1ccc2[nH]c3c(=O)n(CCN4CCNCC4)cnc3c2c1,0.652
21,CCC(C)(C(=O)NC1CCCCC1)N(C(=O)c1ccccn1)c1ccccc1 (stereo not drawn),0.961
22,COc1ccc(NS(=O)(=O)c2cc(C)ccc2OC)cc1OC,0.501

row,Compound,z-score
1,COc1ccc(S(=O)NC2CCCCC2)c(OC)c1C (stereo not drawn),-0.439
2,Cc1ccc(NC(=O)c2ccco2)cc1NC(=O)CSc1nnc(-c2cccs2)n1C,-1.02
3,CCCC(=O)Nc1ccc(C(=O)NNC(=S)NC(=O)c2cccs2)cc1,-0.0886
4,CCCn1c(SCC(=O)Nc2ccccc2Oc2ccccc2)n[nH]c1=O,0.137
5,Cc1cc(C(=O)NCc2cccs2)n(-c2ccccc2)n1,-0.362
6,CN1CCN(C(=O)C23CCC(C)(c4nc5ccccc5nc42)C3(C)C)CC1 (stereo not drawn),-0.481
7,CC1CCN(C(=O)C2CCN(S(=O)(=O)c3cnc[nH]3)CC2)CC1,-1.27
8,CCCNS(=O)(=O)c1ccc(OCC(=O)NCc2ccc3c(c2)OCO3)cc1,0.648
9,Cc1cc(C)nc(SCC(=O)Nc2ncc3c(n2)CCCC3=O)n1,-0.264
10,COc1ccccc1OCC(=O)NN=C(Cc1ccccc1)Cc1ccccc1,-0.606
11,CCOc1ccc(CCNC(=O)c2cc3ccccn3n2)cc1OCC,-0.476
12,COc1ccc(NC(=O)COc2ccc(C(=O)NC3CCCc4ccccc43)cc2OC)cc1 (stereo not drawn),0.0361
13,COc1ccc2ncc(S(=O)(=O)c3ccccc3)c(N3CCC4(CC3)OCCO4)c2c1,-0.776
14,Cn1c(OCc2ccc3c(c2)OCO3)nc2c1c(=O)n(Cc1ccc(Cl)c(Cl)c1)c(=O)n2C,-0.393
15,CCN(CC(=O)Nc1c(C(=O)OC)[nH]c2ccc(Cl)cc12)c1ccc2c(c1)OCO2,0.184
16,Cc1cc(C(F)F)n2nc(C(=O)Nc3ccc(F)cc3F)nc2n1,-0.044
17,CC(CNCC1CCCO1)COc1cccc2ccccc12 (stereo not drawn),0.285
18,COc1ccc(N2CCCn3c2nc2c3c(=O)n(Cc3ccccc3F)c(=O)n2C)c(OC)c1,active: -4.26
19,CCN(C(=O)COc1cc(=O)n(CC)c2ccccc12)c1cccc(Cl)c1,-1.59
20,Cc1cccc(-n2nnnc2SCc2csc(-c3ccccc3)n2)c1,-0.0119
21,CC12CCC(C(=O)N(c3ccccc3Cl)C1=O)C2(C)C (stereo not drawn),0.208
22,O=S(=O)(Nc1cccc2nsnc12)c1ccccc1,0.265

row,Compound,z-score
1,O=C(O)C1CCCCC1C(=O)NCCCc1ccccc1 (stereo not drawn),0.0918
2,COc1cc(/C=N/NC(=O)c2cccnc2)ccc1OCC(=O)Nc1c(C)cc(C)cc1C,-0.566
3,COc1cccc(C(=O)NCCSc2ccc(C)cc2)c1,0.21
4,CC1CCCN(S(=O)(=O)c2ccc(N(C(=O)c3cnccn3)C(C(=O)NC3CCCCC3)c3cccs3)cc2)C1 (stereo not drawn),-0.0389
5,Cc1cc(N2CCN(c3ccc(F)cc3)CC2)nc(-c2ccccc2)n1,-0.298
6,CC1CCN(c2cc(N)c(Cl)cc2[N+](=O)[O-])CC1,-0.475
7,O=C(Oc1ccc2c(-c3ccccc3)cc(=O)oc2c1)c1cccs1,-0.508
8,Cc1cccc(OCCCC(=O)NCc2ccco2)c1,-0.0562
9,CCOC(=O)CSc1nnc(CNC(=O)c2ccc(OC)cc2)n1-c1ccc(OC)cc1,0.729
10,O=C(CCn1nc(-c2ccc(Cl)cc2)ccc1=O)NCc1ccccn1,-0.522
11,Cc1ccccc1Nc1nnc(SCc2cc([N+](=O)[O-])cc3c2OCOC3)s1,-0.061
12,COc1cccc(-c2nc(CSCC(=O)N3CCc4ccccc43)c(C)o2)c1,-0.531
13,CCOC(=O)CSc1nc(NCc2ccco2)c2ccccc2n1,1.29
14,Cc1ccc(/C=N/N=C/c2ccc(C)s2)s1,-0.249
15,Cc1ccc(NC(=O)CCn2cnc3cc(C)c(C)cc32)cc1,-0.642
16,COC1=CC(=O)OC12CCCCC2,0.523
17,CN1CCN(C(=O)c2cc3nc(-c4ccc(F)cc4)cc(C(F)(F)F)n3n2)CC1,-1.43
18,Cc1ccc(NC(=O)c2cc(S(=O)(=O)N3CCOCC3)c(Br)s2)cc1,-0.348
19,CC(=O)N1CN(C2CC(C)(C)NC(C)(C)C2)Cc2c1sc1c2CCCC1,0.426
20,Cc1cccc(Nc2cnn(C34CC5CC(CC(CC(=O)O)(C5)C3)C4)c(=O)c2Cl)c1,-0.467
21,CCOc1ccc(NC2CCN(C(C)=O)CC2)cc1,-0.298
22,CCn1c(=O)c(NC(=O)c2ccccc2)c2n(c1=S)CCCCC2,-0.376

row,Compound,z-score
1,CCOc1ccc2cc(C#N)c(SCC(=O)OC)nc2c1,-0.0839
2,CC1CCN(S(=O)(=O)N2CCC(C(=O)O)CC2)CC1,0.0649
3,CC(=O)Nc1ccccc1C(=O)N1CC2(C)CC1CC(C)(C)C2 (stereo not drawn),0.0101
4,COCCn1c(SCC(=O)Nc2cc(C)nn2-c2ccccc2)nnc1-c1ccncc1,-0.231
5,NNC(=O)COc1ccc(F)cc1,-0.244
6,COc1cccc(C(=O)NC(=S)Nc2ccc3oc(=O)ccc3c2)c1,-0.0157
7,Cc1[nH]n(-c2ccccc2)c(=O)c1/C=N/N1C(=O)c2ccc3c4c(ccc(c24)C1=O)CC3,0.331
8,CCCN1CCC(N2CCN(c3cccc(C(F)(F)F)c3)CC2)CC1,-0.0165
9,O=C(O)CSc1nnc(-c2cc3ccccc3o2)n1-c1ccccc1,0.392
10,c1ccc(CSc2nnc3c(n2)OC(c2ccco2)Nc2ccccc2-3)cc1 (stereo not drawn),-0.268
11,O=C(CN(Cc1ccccc1C(F)(F)F)C(=O)CNC(=O)c1ccco1)NC1CCCC1,0.253
12,COc1cc2c(cc1OC)CN(CC(=O)Nc1ccccc1C#N)CC2,-0.37
13,CCCN(CC(=O)Nc1ccc(Cl)cc1Cl)C(=O)/C=C/c1cc(OC)ccc1OC,-0.408
14,O=C(OC(C(=O)Nc1ccc(Cl)cc1C(F)(F)F)c1ccccc1)c1c(Cl)cccc1Cl (stereo not drawn),-0.0451
15,COc1ccc(C2SCCN2C(=S)Nc2cccc(C(F)(F)F)c2)cc1 (stereo not drawn),0.549
16,O=C(COC(=O)COc1ccc(Nc2ccccc2)cc1)NCc1ccco1,-1.3
17,Cn1cc(Cl)c(C(=O)Nc2nc3ccc(Cl)cc3s2)n1,0.119
18,Cc1ccccc1NC(=O)C(=O)NC(C)CCc1ccccc1 (stereo not drawn),active: 7.37
19,COC(=O)c1cc(C(=O)OC)cc(N2C(=O)CC(NNC(=O)c3ccc(C)cc3)C2=O)c1 (stereo not drawn),0.447
20,COc1ccc(C2c3sc(=O)[nH]c3SC3C4CCC(C4)C23)cc1 (stereo not drawn),0.476
